From publication PMC4336329 (PLoS ONE, 2015)
In all, about 310,000 compounds went through this assay and about 14,000 (4.5%) showed an effect of 50% or more. Effects have a minus sign here. Some of the results follow.

target: human ether-à-go-go-related gene (hERG) potassium channel (human, UniProt Q12809); experiment: primary screen, population patch clamp on CHO cells stably expressing hERG
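Also: peak tail current of the secondary pulse compared with the same well before compound.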

Sequence of human ether-à-go-go-related gene (hERG) potassium channel (Q12809 whole entry, looked up): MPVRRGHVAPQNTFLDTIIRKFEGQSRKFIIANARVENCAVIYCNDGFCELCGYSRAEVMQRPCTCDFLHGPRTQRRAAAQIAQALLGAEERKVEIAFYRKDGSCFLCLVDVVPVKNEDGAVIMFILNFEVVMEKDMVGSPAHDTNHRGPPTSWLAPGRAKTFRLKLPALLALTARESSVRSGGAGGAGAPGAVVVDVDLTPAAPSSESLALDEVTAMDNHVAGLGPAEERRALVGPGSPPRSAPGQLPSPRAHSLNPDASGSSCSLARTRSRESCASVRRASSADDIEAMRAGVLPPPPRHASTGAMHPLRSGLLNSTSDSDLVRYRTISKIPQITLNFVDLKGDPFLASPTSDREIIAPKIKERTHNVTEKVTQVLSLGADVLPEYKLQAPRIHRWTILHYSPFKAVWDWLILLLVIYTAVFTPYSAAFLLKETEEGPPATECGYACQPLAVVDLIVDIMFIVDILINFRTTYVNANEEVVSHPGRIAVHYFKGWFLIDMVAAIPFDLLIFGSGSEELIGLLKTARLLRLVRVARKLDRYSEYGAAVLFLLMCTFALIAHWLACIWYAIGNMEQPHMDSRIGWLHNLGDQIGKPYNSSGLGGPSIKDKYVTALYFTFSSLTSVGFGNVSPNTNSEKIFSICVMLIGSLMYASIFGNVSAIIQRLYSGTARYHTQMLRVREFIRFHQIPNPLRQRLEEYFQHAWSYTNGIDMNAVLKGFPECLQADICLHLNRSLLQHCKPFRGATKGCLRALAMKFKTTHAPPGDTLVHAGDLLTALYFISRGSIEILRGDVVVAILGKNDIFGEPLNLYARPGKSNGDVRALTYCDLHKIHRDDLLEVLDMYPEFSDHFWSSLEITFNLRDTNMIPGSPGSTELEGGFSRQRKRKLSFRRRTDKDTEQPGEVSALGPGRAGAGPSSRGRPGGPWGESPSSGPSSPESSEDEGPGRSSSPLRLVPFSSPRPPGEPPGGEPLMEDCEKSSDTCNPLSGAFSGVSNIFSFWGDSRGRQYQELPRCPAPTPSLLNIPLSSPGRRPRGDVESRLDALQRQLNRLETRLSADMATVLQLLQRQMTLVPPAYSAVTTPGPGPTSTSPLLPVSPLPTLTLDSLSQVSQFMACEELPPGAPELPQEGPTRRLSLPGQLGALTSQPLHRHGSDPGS

SMILES | hERG current change (%, negative = inhibition) at 10uM
CCc1ccccc1NC(=O)c1cc([N+](=O)[O-])ccc1N1CCOCC1 | -16.5%
Cc1ccc(C(=O)NCC(=O)OCn2nnc3ccccc3c2=O)cc1 | 1.84%
COc1ccc(C(=O)COC(=O)Cc2n[nH]c(=O)c3ccccc23)c(OC)c1 | 16.7%
CCCn1c(NCc2c[nH]c3ccccc23)nc2ccccc21 | -34.6%
Cc1cccc(OCC(=O)N2CCN(S(C)(=O)=O)CC2)c1 | 11.2%
CC(C)C(=O)Nc1cccc(-c2cnc3ccccc3n2)c1 | 4.12%
COc1ccc(NC(=S)NC(=O)/C=C/c2ccccc2)cc1 | 2.26%
COc1ccc(NS(=O)(=O)c2cccc(C(=O)NNC(=O)c3ccc(O)c(Cl)c3)c2)cc1 | -0.207%
CC(C)c1ccccc1NC(=O)CNC(C)c1ccc(F)cc1 (stereo not drawn) | 11.8%
COc1ccc(S(=O)(=O)Nc2c(C(=O)O)[nH]c3ccccc23)cc1 | 6.47%
CCOC(=O)C1(Cc2cccc(Cl)c2)CCCN(C(=O)c2occc2C)C1 (stereo not drawn) | -13.9%
COc1ccc(NC2CCCN(C(=O)CCCn3cncn3)C2)cc1OC (stereo not drawn) | 6.66%
O=C(NCCO)C(=O)Nc1cc2c3c(c1)CCC(=O)N3CCC2 | 12.3%
CCOC(=O)C(CC)/C(C)=N\NC(=O)CCC(=O)Nc1ccc(Cl)cc1Cl (stereo not drawn) | -7.86%
COc1ccc(CNC(=O)CSc2nc3ccc(N)cc3s2)cc1 | -8.02%
Cc1c(OCC(=O)N(C)c2ccccc2)ccc2c3c(c(=O)oc12)CCC3 | -29.9%
COc1ccc(Nc2cc(C(=O)NCc3cccnc3)c3ccccc3n2)c(OC)c1 | -17.8%
CN(Cc1c(F)cccc1Cl)C(=O)c1cc2ccccc2o1 | -9.31%
O=[N+]([O-])[N-][n+]1cnn(Cc2ccccc2)c1 | 11.6%
Cc1cc(C)c2[nH]c(=O)c(C(c3nnnn3CC3CCCO3)N3CCC(C)CC3)cc2c1 (stereo not drawn) | -15.3%
O=C(NCC(=O)N1CCN(c2ccccc2)CC1)c1ccc(Br)o1 | -39.9%
Cc1cc(Nc2ccc(Br)cc2)nc(-c2ccccc2O)n1 | 19.9%
Brc1ccc(-c2nnc3sc(CN4CCN(c5ccccc5)CC4)cn23)cc1 | -1.83%

SMILES | hERG current change (%, negative = inhibition) at 10uM
O=C(CN1C(=O)COc2ccccc21)N(Cc1ccccc1)Cc1ccccn1 | -24.4%
C=CC[N+](C)(C)C/C(Cl)=C(\Cl)c1ccccc1.[Br-] | -5.01%
COc1cc(NC(=O)C/C(C)=N/NC(=O)Cc2ccccc2)c(OC)cc1Cl | 0.288%
CC1(C)Cc2cccc(OCC(=O)N3CCN(S(=O)(=O)c4ccccc4)CC3)c2O1 | -31.3%
O=C1c2ccccc2C(Nc2ccc(F)c(Cl)c2)N1Cc1ccco1 (stereo not drawn) | -4.68%
Cc1noc(NS(=O)(=O)c2ccc(N/C=C\C(=O)c3ccncc3)cc2)c1C | -4.04%
COc1ccc(/C=N/NC2=NS(=O)(=O)c3ccccc32)cc1OC(C)=O | 15.1%
COC(=O)C1=C(c2ccc(OC(F)(F)F)cc2)C[C@@H]2CC[C@H]1N2C(=O)N1CCC(C)CC1 | -27.1%
COc1ccc2nc(NNC(=O)c3cc(=O)c4ccccc4o3)sc2c1 | 3.29%
CN(C)CCNc1ncnc2c1sc1nc(N3CCCC3)c3c(c12)CC(C)(C)OC3 | -20.4%
c1ccc2c(N3CCCCC3)nc(N3CCCCC3)nc2c1 | -39.1%
NC(=O)NCCN1CCN(c2ncc(C(F)(F)F)cc2Cl)CC1 | -33.7%
CC(C)C(=O)NCCc1nc2ccccc2n1C | 1.06%
CC(C)N(C(=O)COC(=O)c1ccc([N+](=O)[O-])cc1)c1ccccc1 | -0.436%
CN1C(=S)SC(N2OC3C(=O)N(c4ccccc4)C(=O)C3C2c2ccccc2)C1(C)C (stereo not drawn) | 5.6%
COc1ccc(OC)c(/C=N/NC(=O)CCc2ccc(O)c(O)c2)c1 | -0.886%
CCOC(=O)Cn1nc(NC(=O)c2ccc3c(c2)OCO3)cc1C | 11.2%
CCOC(=O)C(=N/O)/C(C)=N/NC(=O)C(=O)Nc1cc(Cl)ccc1Cl | 2.42%
COc1cc(OC)cc(-c2cn[nH]c2N)c1 | -25.7%
Cc1cccc(NC(=O)CNC(=O)COc2cccnc2[N+](=O)[O-])c1C | 14.4%
CC1CCN(S(=O)(=O)c2cn(CC(=O)Nc3ccc(OC(F)(F)F)cc3)cn2)CC1 | 14.2%
CN=C(Nc1cc(C)nn1-c1ccccc1)c1ccccc1 | 0.527%
O=C(NCC1CCCO1)c1cc(Br)c(Br)s1 (stereo not drawn) | -6.15%

SMILES | hERG current change (%, negative = inhibition) at 10uM
O=C(COC(=O)CCS(=O)(=O)c1ccc(F)cc1)NC1CCCCC1 | -8.98%
O=C(CSCC(=O)Nc1ccc2ccccc2c1)NCc1ccccc1 | 6.58%
CN1CCN(Cc2c(F)cccc2Cl)CC1 | 12.5%
COCCCNC(=O)C(=O)N/N=C/c1cc2c(cc1Br)OCO2 | -33.7%
Cc1ccccc1C(=O)N1CCN(c2ccc(NC(=S)NC(=O)c3ccco3)cc2)CC1 | -29.5%
c1ccc2cc(CC3=NCCN3)ccc2c1 | 13.9%
CN1c2ccccc2C(O)=C(C(=S)Nc2ccccc2)S1(=O)=O | 22.7%
CCOC(=O)C1Nc2ccc(C(F)(F)F)cc2C2c3ccccc3CC12 (stereo not drawn) | 9.28%
N#Cc1nc(COc2ccc(Br)cc2)oc1N1CCCC1 | -12%
COc1ccc(S(=O)(=O)Nc2nc3c(s2)C(=O)CC(C)(C)C3)cc1 | -10.3%
CCCOc1ccc(-c2nc(C#N)c(N3CCN(CC)CC3)o2)cc1 | -12.9%
Cc1cccc(-c2nc(CN3CCCC(C(=O)NC4CCCC4)C3)c(C)o2)c1 (stereo not drawn) | -76.3%
COCCn1c(SCC(=O)Nc2ccc(Cl)cn2)nc2ccccc21 | -32.1%
CCC(CC)C(=O)Nc1cccc(C(=O)Nc2nccs2)c1 | 12.3%
CC(=O)NC1=NN(C(C)=O)C(c2ccco2)S1 (stereo not drawn) | 17.2%
CS(=O)(=O)N1CCCC(C(=O)NCc2ccc(F)cc2)C1 (stereo not drawn) | -12.5%
Cc1ccccc1C(=O)Nc1cccc(NC(=O)c2ncn[nH]2)c1 | 19.5%
COc1ccc(NC(=O)CSCC(=O)Nc2ccccc2N2CCCC2)cc1 | -7.76%
Cc1ccc2nc(NCC(N)=O)nc(-c3ccccc3)c2c1 | 8.23%
Cc1cc(NC(=O)CSc2nc3c(c(=O)n2C)SCC3)no1 | 15.2%
Cc1ccc(C(C)NC(=O)c2ccco2)cc1 (stereo not drawn) | -5.21%
COc1cc(OC)cc(-c2nnc(SCc3c(F)cccc3Cl)o2)c1 | 0.324%
CCS(=O)(=O)N1CCC(C(=O)Oc2ccc(C)c(C)c2)CC1 | 15.8%

SMILES | hERG current change (%, negative = inhibition) at 10uM
CC12CCC(=O)N1C(C(=O)OCC(=O)Nc1cccc(Br)c1)CS2 (stereo not drawn) | 6.89%
O=C1/C(=C/c2ccccc2O)SC(=S)N1Cc1cccnc1 | 12.9%
Cc1onc(NC(=O)CSCC(=O)O)c1Br | 10.8%
CCOc1ccc(-c2[nH]nc3c2C(c2cccnc2)C(C#N)=C(N)O3)cc1 (stereo not drawn) | -5.53%
C=C1CCC[C@]2(C)C[C@H]3OC(=O)C(CNCCN(C)C)[C@H]3CC12 (stereo partly drawn) | 0.81%
CN(C)N1C(=O)/C(=C/c2ccco2)SC1=Nc1ccccc1 | 14%
CCOc1ccc(-c2onc(C(F)(F)F)c2-c2cscn2)c(O)c1 | 6.55%
CSc1ccc(S(=O)(=O)N(C)Cc2ccccc2)cc1 | 7.97%
COc1ccc(CNC(=O)CSCc2cnn(-c3ccccc3)c2-n2cccc2)cc1 | -39.6%
CCCCC(=O)Nc1nnn(CCC)n1 | 9.55%
Cc1cc(C(=O)N/N=C/c2ccc([N+](=O)[O-])cc2)c(C)o1 | -1.99%
CCOC(=O)CCc1n[nH]c(=O)[nH]c1=O | 7.83%
Cc1ccccc1COc1ccc(/C(O)=C2/C(=O)C(=O)N(CCCn3ccnc3)C2c2ccco2)cc1 (stereo not drawn) | 17.2%
Cc1cc(C(=O)CSc2nnc(-c3ccccc3F)o2)c(C)n1Cc1cccs1 | -9.29%
COc1ccc(S(=O)(=O)N2CCOCC2)cc1N=Nc1sc(N)nc1-c1ccccc1 | 0.0587%
CC(=O)N1CC(C)Oc2ccc(S(=O)(=O)NC(CC(=O)O)c3ccccc3)cc21 (stereo not drawn) | 21.8%
COc1c(C(C)C)cc(NC(C)=O)cc1C(C)C | 5.78%
CC(=NCCN1CCCCC1)c1c(O)n(Cc2ccccc2)c(=O)[nH]c1=O | -35.1%
O=C(Cn1c(=O)c2cccn2c2ccccc21)NCc1cccc(F)c1 | 7.88%
COc1ccc(/C=N\NC(=O)c2ccc(F)cc2)cc1COc1ccccc1C(N)=O | -44.3%
COc1ccccc1OC(C)c1nnc(SCC(=O)Nc2c(C)n(C)n(-c3ccccc3)c2=O)n1-c1ccccc1 (stereo not drawn) | 1.06%
